Test results from PubChem BioAssay AID488969 (Vanderbilt High Throughput Screening Facility, 2010).
In all, about 110,000 compounds were measured (“z-score”: median about -0.1, highest 2% from about 2 on). Some of the results follow.

These molecules were tested against Metabotropic glutamate receptor 8 (Rattus norvegicus) (UniProt P70579) (assay: mGluR8 Gi/Go-coupled signaling modulation – cell-based, rat, thallium flux, HTS, primary screen (AID 488969)). Conditions: HEK293 rat mGluR8, GIRK (G protein-gated inwardly rectifying potassium channel) thallium flux, FluoZin2; at 10 µM; stronger effect = higher value; submaximal glutamate (EC20) added with thallium.
Sequence of UniProt P70579 (P70579 whole entry, looked up): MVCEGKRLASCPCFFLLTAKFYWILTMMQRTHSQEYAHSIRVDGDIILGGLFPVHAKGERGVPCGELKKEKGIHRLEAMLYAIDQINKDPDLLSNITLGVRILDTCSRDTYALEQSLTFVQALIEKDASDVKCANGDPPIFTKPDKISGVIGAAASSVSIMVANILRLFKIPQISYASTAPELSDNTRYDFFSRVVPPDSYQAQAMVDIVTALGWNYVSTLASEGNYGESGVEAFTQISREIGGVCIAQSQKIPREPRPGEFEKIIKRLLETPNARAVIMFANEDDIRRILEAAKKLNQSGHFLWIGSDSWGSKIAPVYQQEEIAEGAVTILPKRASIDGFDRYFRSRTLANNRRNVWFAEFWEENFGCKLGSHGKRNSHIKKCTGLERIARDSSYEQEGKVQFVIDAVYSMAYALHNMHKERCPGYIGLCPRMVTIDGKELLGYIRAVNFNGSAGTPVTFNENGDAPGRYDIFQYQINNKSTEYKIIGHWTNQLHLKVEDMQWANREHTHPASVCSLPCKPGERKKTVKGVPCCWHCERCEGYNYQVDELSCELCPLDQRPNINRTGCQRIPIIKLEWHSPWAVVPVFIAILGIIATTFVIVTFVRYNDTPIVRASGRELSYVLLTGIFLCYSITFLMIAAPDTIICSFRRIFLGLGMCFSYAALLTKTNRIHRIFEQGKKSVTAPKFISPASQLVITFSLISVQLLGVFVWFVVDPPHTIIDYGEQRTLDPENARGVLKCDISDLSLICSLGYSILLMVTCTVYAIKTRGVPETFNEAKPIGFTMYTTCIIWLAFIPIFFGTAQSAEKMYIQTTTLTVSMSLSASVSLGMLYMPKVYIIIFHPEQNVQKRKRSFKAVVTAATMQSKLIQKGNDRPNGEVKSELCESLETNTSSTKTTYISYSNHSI
`COc1ccccc1NC(=O)CN1CCN(CC(=O)Nc2ccc3c(c2)OCCO3)CC1` gave a z-score of -1.33. With `Cc1cc2[nH]c(=S)[nH]c2cc1C` the z-score was 0.151. `CCC(=O)NC(=S)Nc1ccc(NC(=O)c2ccccc2[N+](=O)[O-])cc1` gave a z-score of -0.232. `COc1ccc(CCNC(=O)CCN2C(=O)C3CC=CCC3C2=O)cc1OC` (stereo not given) gave a z-score of -0.988. For `N#C/C(=C\c1ccc(F)cc1)c1nc(-c2ccco2)cs1`, the z-score was -0.0562. With `C/C(=N\NC(=O)Cc1cccc2ccccc12)c1ccncc1` the z-score was -0.275. Work on `Cc1cc(Cl)ccc1NC(=S)NCc1ccccc1` yielded a z-score of 0.195. `O=C(O)Cn1ncc2c1-c1ccoc1CC2` was tested, and the z-score was 0.0592. Molecule `N#C/C(=C/c1ccc(N2CCCCCC2)o1)c1ccc(Cl)cc1` has a z-score of -0.433. `Cc1ccc(NS(=O)(=O)c2ccc(NC(=O)c3ccc(-c4ccccc4)cc3)cc2)c(C)c1` showed a z-score of -0.2. In the case of `Cn1c(SCc2nc3ccccc3[nH]2)nnc1-c1cccnc1`, the z-score was -0.278. For `COc1ccc(N2CCN(C(=O)c3ccc(NS(=O)(=O)c4ccc(F)cc4)cc3)CC2)cc1`, the z-score was -0.641. Molecule `O=C(O)CC(C(=O)O)N1C(=O)/C(=C/c2ccc(-c3nc4ccccc4s3)o2)SC1=S` (stereo not given) has a z-score of 1.97. `CCCNC(=O)Cn1c2ccccc2c2nc(=O)cc(C)n21` showed a z-score of -1.69. `CCN(CC)S(=O)(=O)c1cc([N+](=O)[O-])ccc1N=Nc1c(O)[nH]c2ccccc12` was tested, and the z-score was -0.035. `CCc1cc(=O)oc2cc(OCc3nn[nH]n3)ccc12` showed a z-score of -0.0454. `CCOC(=O)C1=C(C)NC(=O)C1CC(=O)O` (stereo not given) gave a z-score of -0.156. `Nc1nc(SCC(=O)NCC2CCCO2)n[nH]1` (stereo not given) showed a z-score of 0.767. `Cc1ccc(C)c(N(C(=O)CCC(=O)Nc2cc(C)on2)C(C(=O)NC2CCCC2)c2ccco2)c1` (stereo not given) was tested, and the z-score was -0.454. For `COC(=O)C1=CN(C(C)C)C=C(C(=O)OC)C1c1cc2c(cc1Br)OCO2`, the z-score was -0.0368. Molecule `CC1CC(C)(C)Nc2ccc(OC(=O)c3ccco3)cc21` (stereo not given) has a z-score of 2.2. Work on `CN1CCN(c2ccc([N+](=O)[O-])cc2C(=O)c2ccc(Br)cc2)CC1` yielded a z-score of -0.228. For `Cc1ccc(NC(=O)c2cccc(OC(F)F)c2)c(OC(F)F)c1`, the z-score was -0.238. Molecule `CCOc1cc(NC(=S)NCCCN2CCOCC2)c(OCC)cc1NC(=O)C(C)C` has a z-score of 0.0126. `Cc1cccc(NC(=O)CCN2C(=O)C3C4C=CC(C4)C3C2=O)n1` (stereo not given) showed a z-score of -0.0103. `COc1ccc(NC(=O)Nc2cc(C)ccc2OC(F)F)c(OC)c1` gave a z-score of -0.567. Molecule `O=C(NCc1ccco1)c1ccccc1NC(=O)C1CC(=O)N(c2ccc(Cl)cc2)C1` (stereo not given) has a z-score of -2.01. `N#CCCn1ncn(-c2ccccc2)c1=S` was tested, and the z-score was -0.0781. With `Cc1ccc2oc(-c3cccc(NC(=O)/C=C/c4cccc([N+](=O)[O-])c4)c3C)nc2c1` the z-score was 0.028. `COc1cc(OC)c(S(=O)(=O)NCc2ccco2)cc1S(=O)(=O)NCc1ccco1` was tested, and the z-score was 0.395. For `O=C(Nc1c(-c2ccccc2)nc2ccccn12)c1ccco1`, the z-score was 0.152. With `COCC(=O)Nc1nnc(COc2ccc(Cl)cc2)s1` the z-score was 0.279. `CC(=O)N1CN(C2CCS(=O)(=O)C2)Cc2c1sc1c2CCCC1` (stereo not given) gave a z-score of -0.439. For `Nn1c(SCC(=O)NCc2ccc3c(c2)OCO3)nnc1C1CC1`, the z-score was 0.394. With `CCOc1ccc(N2C(=O)CN=C2Nc2ccccc2Cl)cc1` the z-score was -0.893. With `COc1ccc(CNC(=O)C(C#N)c2nc3ccccc3nc2N2CCN(C)CC2)cc1` (stereo not given) the z-score was 0.201. For `N#CCCN(Cc1cccnc1)C(=O)Nc1ccc(Cl)c(Cl)c1`, the z-score was 0.126. Work on `COc1cccc(CNc2cc(CSc3ccc(Cl)cc3)nc(C)n2)c1` yielded a z-score of 0.736. `Clc1cccc(CN2CCC(Cc3ccccc3)CC2)c1` was tested, and the z-score was 0.188. `O=c1c(CN2CCN(c3cccc(Cl)c3)CC2)coc2c(Cl)cc(Cl)cc12` showed a z-score of 1.05. `O=C(OCC(=O)c1ccc[nH]1)c1ccc(S(=O)(=O)N2CCCCCC2)cc1` gave a z-score of 0.146. In the case of `Cn1c(/C=N/NC(=O)c2ccccc2)nc2ccccc21`, the z-score was 0.298. For `CC1(C(=O)NC2CCCC2)CCC(=O)N1Cc1ccccc1Cl` (stereo not given), the z-score was -0.0897. `CCN(CC)C(=O)CSc1nc(O)cc(=O)n1-c1ccccc1OC` gave a z-score of 0.0527. With `CS(=O)(=O)N1CCC(C(=O)Nc2ccc(OCc3ccccc3)cc2)CC1` the z-score was -0.0531. `O=C(Nc1ccc(-c2nnc(-c3ccccc3)o2)cc1)c1ccc(Br)o1` showed a z-score of 0.643. `CCC1(CC)NC(=O)N(CC(=O)NCc2ccc3c(c2)OCO3)C1=O` showed a z-score of -0.0887. Molecule `NNC(=O)CNC(c1ccccc1)c1cc(Br)ccc1NC(=O)c1ccccc1Br` (stereo not given) has a z-score of -0.312. In the case of `O=C(Nc1ccccc1)c1cc2c(=O)c3ccccc3oc2nc1C(F)(F)F`, the z-score was -0.171. `NS(=O)(=O)c1ccc(N/C=C\C(=O)c2ccc3ccccc3c2)cc1` was tested, and the z-score was 0.982. With `CCn1c(-c2ccccc2Cl)nn(CC(=O)Nc2ccccc2OC)c1=S` the z-score was -0.438. `Fc1c(F)c(C(F)(F)F)c(F)c(F)c1N1CCN(c2ccc3nnc(C(F)(F)F)n3n2)CC1` was tested, and the z-score was -0.195. In the case of `CC(=O)Nc1ccc(OCC(O)Cn2cnc3ccccc32)cc1` (stereo not given), the z-score was -0.279. Work on `Cn1cccc1C(=O)OCC(=O)Nc1ccc2c(c1)CCC2` yielded a z-score of 1.51. `O=C(NC1CCN(C(=O)Nc2ccccc2)CC1)C1CCCCC1` was tested, and the z-score was -0.671. `Cc1ccc2c(CC(=O)Nc3c(C)n(C)n(-c4ccccc4)c3=O)coc2c1` showed a z-score of -1.07. Work on `C=CCOc1ccc(CNn2c(C)n[nH]c2=S)cc1OC` yielded a z-score of 0.17. `O=C1C(Cl)=C(Nc2ccccc2O)C(=O)N1CCc1ccccc1` was tested, and the z-score was -0.245. In the case of `CC(C)c1cc(C(N)=O)c(NC(=O)C2CCC2)s1`, the z-score was -0.311. `Cc1ccc(S(=O)(=O)N(C)c2ccc(OCC(=O)Nc3nc4c(ccc5ccccc54)s3)cc2)cc1` gave a z-score of -0.0297. With `O=C(CCCOc1ccccc1)N1CCN(S(=O)(=O)c2cccs2)CC1` the z-score was 0.0616. `O=C(NCCCn1ccnc1)Nc1cccc(Cl)c1` showed a z-score of 0.583. `CCn1c(/C=C/c2c(C)[nH]c3ccccc23)nc2ccccc2c1=O` gave a z-score of -1.05. Work on `COc1ccc2c(CCNC(=O)CN3C(=O)c4ccccc4C3=O)c[nH]c2c1` yielded a z-score of 0.0377. `S=C(NCc1ccccn1)Nc1ccc(Cl)cc1` was tested, and the z-score was 1.42. With `CC(NC(=O)c1cc2ccccc2o1)c1cccs1` (stereo not given) the z-score was 0.289. With `CCOC(=O)c1cnc2ccc(OCC)cc2c1NCc1ccccc1OC` the z-score was -0.179. `O=C(Nc1nc2ccccc2[nH]1)c1ccc(F)cc1` gave a z-score of 0.524. In the case of `Cc1c(C(=O)N2CCN(C)CC2)oc2c1C(=O)CC(C)(C)C2`, the z-score was -0.169. Molecule `O=S(=O)(c1cccs1)N1CN(CC2CCCO2)c2nc3ccccc3nc21` (stereo not given) has a z-score of 0.822.
